In PubChem BioAssay AID686979 (National Center for Advancing Translational Sciences (NCATS), 2013):
The campaign covered roughly 420,000 compounds. About 50,000 (12%) were called active. Inconclusive means that the source gave no clear call. Such entries were picked first, then a sample of the others. The call rests on the fitted dose curve; in most records, active means well fitted inhibition curve with a large enough effect; inconclusive means small, poorly fitted or top-dose-only effect; inactive means flat fitted curve, though single readings scatter. Potencies of inconclusive entries are left out as doubtful fits.

Experiment: qHTS for Inhibitors of human tyrosyl-DNA phosphodiesterase 1 (TDP1): qHTS in cells in presence of CPT; further: nearly all actives have a fitted effect of over 55% in size
Details: chicken DT40 Tdp1-/-;hTDP1 cells + 20 nM CPT, ATP luminescence, 48 h; activity change, negative = growth inhibition: at 46.2 µM (top of the series)
Outline: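 Cell growth measured by CellTiter-Glo luminescence after a minimum 48 h, 37 C compound exposure with 20 nM CPT in Tdp1-knockout DT40 cells stably expressing hTDP1, seeded 400/well; qHTS titration format.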
On the % scale 0 is the no-effect control and ±100 the full control effect; potency means the concentration at half of the fitted maximal effect; tags describe the fitted curve by direction and shape.

Row | Compound | Potency | activity change, negative = growth inhibition
1 | S=c1[nH]cnc2scc(-c3ccccc3)c12 | inconclusive [inhibitor, single point] | –
2 | C[C@@H]1CN([C@H](C)CO)C(=O)c2cc(NC(=O)Nc3ccc(C(F)(F)F)cc3)ccc2O[C@H]1CN(C)C(=O)Nc1ccc(F)cc1 | inconclusive [inhibitor, single point] | –
3 | Cc1ccc(CN2CCC(c3cc(-c4ccc(Cl)cc4)n[nH]3)CC2)cc1 | active: 16.4 µM | –
4 | CCCSCCCNC(=O)c1ccc(Cn2c(=O)c3cccn3c3cccnc32)cc1 | – | inactive: 1.57%
5 | COc1cc(NC(=O)CSc2nc3nc(C)c(Cc4ccc(C)cc4)c(C)n3n2)cc(OC)c1 | inconclusive [inhibitor, single point] | –
6 | O=C(Nc1ccccc1)c1ccc(-c2ccccc2C(F)(F)F)o1 | inconclusive [inhibitor, single point] | –
7 | Cc1ccc(C)c(NCC(O)c2ccccc2)c1 (stereo not given) | – | inactive: -1.91%
8 | COc1ccc(N(CC(=O)N2CCN(Cc3ccccc3)CC2)S(=O)(=O)c2ccccc2)cc1 | inconclusive [inhibitor, single point] | –
9 | NS(=O)(=O)c1ccc(NC(=S)Nc2ccc(S(=O)(=O)Nc3nccs3)cc2)cc1 | – | inactive: -6.72%
10 | Clc1ccc(-c2cccc3nccn23)c(Cl)c1 | – | inactive: -18.4%
11 | Cc1ccc(S(=O)(=O)N(C)C)cc1NC(=O)C(C)OC(=O)C1CCCCC1 (stereo not given) | – | inactive: 7.37%
12 | COc1cc(/C=C/C(=O)OCC(=O)Nc2cc(C)on2)ccc1OCC#N | – | inactive: -26.4%
13 | O=C(OCCN1CCOCC1)c1ccc(O)cc1 | – | inactive: 1.99%
14 | Cc1cc(C)c(NC(=O)CSc2nc(=O)n3cc(C)ccc3n2)c(C)c1 | inconclusive [inhibitor, single point] | –
15 | O=C1NC[C@@H](Cc2cccc3ccccc23)N(CC2CCCCC2)C1=O | inconclusive [inhibitor, single point] | –
16 | N#C/C(=C\c1c(N2CCC(C(N)=O)CC2)nc2ccccn2c1=O)C(=O)NC1CCCCC1 | – | inactive: -17.3%
17 | N#Cc1c(N)nc(SCC(=O)C23CC4CC(CC(C4)C2)C3)c(C#N)c1-c1ccc(Cl)cc1 | inconclusive [inhibitor, partial curve, poor fit] | –
18 | Nc1c(C(=O)NC2CC2)sc2nc3c(c(-c4ccco4)c12)CC/C3=C/c1ccco1 | active: 18.4 µM | –
19 | Cn1cc([C@@H]2C[C@H]3CN(Cc4cccc(Cl)c4)C(=O)[C@]34CCCN24)c2ccccc21 | inconclusive [inhibitor, single point] | –
20 | COc1ccc(OCC(=O)Nc2cccc(S(=O)(=O)N(C)c3ccccc3)c2)c([N+](=O)[O-])c1 | inconclusive [inhibitor, single point] | –
